# Measured values: PubChem BioAssay AID504332 (National Center for Advancing Translational Sciences (NCATS), 2011)
# In all, about 350,000 compounds went through this assay and about 31,000 (8.9%) were called active. The shares of active, inactive and inconclusive entries below differ from those in the screen. The call rests on the fitted dose curve; in most records, active means well fitted inhibition curve with a large enough effect; inconclusive means small, poorly fitted or top-dose-only effect; inactive means no such curve, though single readings can be large or run the other way. A potency beside an inconclusive call is a rough fit, not a confirmed value.
# Target: Histone-lysine N-methyltransferase EHMT2 (Homo sapiens) (UniProt Q96KQ7)
# Assay: qHTS Assay for Inhibitors of Histone Lysine Methyltransferase G9a; further: nearly all actives have a fitted effect of over 75% in size
# Settings: G9a H3K9 monomethylation, AlphaScreen, 2 h; activity, negative = inhibition: at 59 µM (top of the series) unless noted
# In short: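 Quantitative HTS format: methyltransferase activity on a biotin-tagged H3K9 peptide is measured by AlphaScreen, using a rabbit anti-monomethyl-H3K9 antibody with streptavidin donor and anti-IgG acceptor beads. Final levels are 20 nM enzyme, 500 nM peptide, 20 uM SAM; 2 h RT.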
# On the % scale 0 is the no-effect control and ±100 the full control effect; potency means the concentration at half of the fitted maximal effect; tags describe the fitted curve by direction and shape.
# Chain of UniProt Q96KQ7 (Q96KQ7 whole entry, looked up): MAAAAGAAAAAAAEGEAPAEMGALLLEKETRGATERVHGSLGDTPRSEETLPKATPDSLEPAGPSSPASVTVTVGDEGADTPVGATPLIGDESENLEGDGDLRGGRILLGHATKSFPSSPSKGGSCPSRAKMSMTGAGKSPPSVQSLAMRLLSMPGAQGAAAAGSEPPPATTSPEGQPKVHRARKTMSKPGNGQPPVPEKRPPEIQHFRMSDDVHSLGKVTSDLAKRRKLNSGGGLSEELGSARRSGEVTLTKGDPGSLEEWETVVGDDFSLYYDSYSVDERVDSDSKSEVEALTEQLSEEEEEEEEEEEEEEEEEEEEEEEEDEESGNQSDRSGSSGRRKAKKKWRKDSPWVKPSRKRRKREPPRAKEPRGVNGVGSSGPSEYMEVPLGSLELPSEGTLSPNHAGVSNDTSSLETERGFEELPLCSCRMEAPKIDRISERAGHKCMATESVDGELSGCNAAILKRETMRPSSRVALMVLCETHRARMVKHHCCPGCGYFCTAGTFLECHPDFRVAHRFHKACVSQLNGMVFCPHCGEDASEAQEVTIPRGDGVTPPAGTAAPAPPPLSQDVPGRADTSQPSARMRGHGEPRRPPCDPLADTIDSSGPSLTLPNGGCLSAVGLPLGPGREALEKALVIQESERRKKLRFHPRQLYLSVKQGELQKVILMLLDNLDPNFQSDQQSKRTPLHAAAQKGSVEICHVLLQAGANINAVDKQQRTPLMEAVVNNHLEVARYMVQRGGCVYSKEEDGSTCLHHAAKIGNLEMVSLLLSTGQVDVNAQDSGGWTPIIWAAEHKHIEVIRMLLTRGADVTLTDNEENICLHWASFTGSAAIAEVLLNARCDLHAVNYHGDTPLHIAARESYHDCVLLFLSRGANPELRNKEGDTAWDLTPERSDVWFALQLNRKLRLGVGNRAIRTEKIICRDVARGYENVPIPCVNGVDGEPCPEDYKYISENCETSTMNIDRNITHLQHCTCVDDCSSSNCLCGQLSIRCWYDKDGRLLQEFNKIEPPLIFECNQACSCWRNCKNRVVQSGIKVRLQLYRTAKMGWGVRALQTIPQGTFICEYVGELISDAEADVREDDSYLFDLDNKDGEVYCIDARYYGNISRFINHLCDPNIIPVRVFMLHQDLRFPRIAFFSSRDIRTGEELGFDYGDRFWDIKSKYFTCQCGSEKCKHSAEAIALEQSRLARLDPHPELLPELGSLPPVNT
Structure (SMILES),Potency,"activity, negative = inhibition"
O=C(CSC1=NCCS1)Nc1nc2c(s1)CCCC2,active: 39.8 µM,
COc1ccccc1CC(=O)NC1CCCCCC1,"inconclusive: 14.1 µM [inhibitor, single point]",
CCCCCCCCCCCCC/C=C/[C@@H](O)[C@H](CO)NC(=O)CCCCCCCCCCCCCCC,,inactive: -0.546%
CCCCOc1ccccc1C1CC(=O)Nc2cc(OC)c(OC)cc21 (stereo unspecified),"inconclusive: 7.94 µM [inhibitor, partial curve, poor fit]",
CC(=O)Nc1c(C)nn(-c2ccccc2)c1N1CCC(C(=O)Nc2cccc(C(F)(F)F)c2)CC1,,inactive: 10.7%
COc1ccccc1N1CC(O)=C(c2nc3ccccc3s2)C1=N,"inconclusive: 1.12 µM [inhibitor, partial curve, poor fit]",
COc1ccc(CCNC(=O)Cn2c(=O)c3cccn3c3ccccc32)cc1OC,,inactive: -6.94%
CC(=O)N1CCC(C(=O)NC2CCCc3c2cnn3-c2cc(F)cc(F)c2)CC1 (stereo unspecified),"inconclusive: 31.6 µM [inhibitor, partial curve, poor fit]",
Cc1ccccc1C(=O)NC(=S)Nc1sc2c(c1C#N)CCCC2,,inconclusive: -94.9% [inhibitor]
COc1cc(OC)c2c(c1C(CCN1CCOCC1)c1ccc(N(C)C)cc1)OC(=O)CC2c1ccc(N(C)C)cc1 (stereo unspecified),,inactive: -168%
CC(C)Sc1nc2sccc2c(=O)n1-c1ccccc1,active: 39.8 µM,
O=C(COC(=O)CCCc1nc2ccccc2s1)Nc1ncc(Cl)cc1Cl,"inconclusive: 70.8 µM [inhibitor, partial curve, poor fit]",
Cc1ccc(S(=O)(=O)Nc2nc(C)c(C(=O)Nc3ccccc3)s2)cc1,"inconclusive: 89.1 µM [inhibitor, single point]",
Cc1ccc(NC(=O)Cn2cccc2)cc1Cl,,inconclusive: -79.9% [inhibitor]
COc1cc(C2C(C#N)=C(C)NC3=C2C(=O)CC(C)(C)C3)ccc1O (stereo unspecified),"inconclusive: 8.91 µM [inhibitor, partial curve, poor fit]",
N#Cc1nc(COc2ccccc2F)oc1NCCCn1ccnc1,active: 31.6 µM,
COCCN1C(=O)N(c2ccccc2)C(=O)C1CC(=O)Nc1cc(OC)cc(OC)c1 (stereo unspecified),"inconclusive: 89.1 µM [inhibitor, single point]",
CCOc1ccc(NC(=O)CN2CCSc3ccc(S(=O)(=O)N4CCCC4)cc32)cc1,,inactive: -29.2%
COc1ccc(O)c(CN2CCN(C/C=C/c3ccccc3)CC2)c1,"inconclusive: 39.8 µM [inhibitor, single point]",
O=C(NC1CCC(O)CC1)c1ccc(-c2ccc(Cl)cc2)o1 (stereo unspecified),"inconclusive: 35.5 µM [inhibitor, partial curve]",
CCOC(=O)Cn1c(=O)n(CC2CCCO2)c2nc(-c3c(F)cccc3Cl)nc(C(N)=O)c21 (stereo unspecified),,inactive: 12.6%
Cc1ccccc1-n1c(=O)/c(=C\c2ccco2)s/c1=C(/C#N)C(=O)Nc1ccccc1,"inconclusive: 10 µM [inhibitor, full curve, poor fit]",

Structure (SMILES),Potency,"activity, negative = inhibition"
Cc1c(C(=O)N2CCN(c3ccccc3)CC2)oc2c(Cl)cccc12,"inconclusive: 3.16 µM [inhibitor, single point]",
COc1ccccc1/C=C/C(=O)NCC(=O)N/N=C/c1ccc2c(c1)OCO2,"inconclusive: 56.2 µM [inhibitor, partial curve, poor fit]",
CCCOc1ccc(C2NC(=S)NC(C)=C2C(=O)c2ccccc2)cc1OC (stereo unspecified),"inconclusive: 7.94 µM [inhibitor, partial curve, poor fit]",
CCN(CC)c1ccc(NC(=O)CN2C(=O)c3cccnc3Oc3ccc(Cl)cc32)c(C)c1,active: 2.82 µM,
Cc1ccc(S(=O)(=O)Nc2ccccc2C(=O)OC(C)C(=O)Nc2ccc3ccccc3c2)cc1[N+](=O)[O-] (stereo unspecified),active: 50.1 µM,
COc1cc(C(=S)N2CCCC2)ccc1OCC(N)=O,,inactive: -14.1% [at 102 µM]
CCOC(=O)c1c(NC(=O)CSc2nnc(-c3ccccc3C)n2C)sc(C(C)=O)c1C,,inconclusive: -58.4% [inhibitor]
Cc1cc(N)c2ccccc2[n+]1CCCCCCCCCCCCCC[n+]1c(C)cc(N)c2ccccc21,active: 0.398 µM,
COC(=O)CCSc1cc(NCCOC(C)=O)c([N+](=O)[O-])c2nonc12,,inactive: 25.8% [at 102 µM]
O=C(COc1ccccc1)N1N=C(c2cccnc2)CC1(O)C(F)(F)F (stereo unspecified),active: 50.1 µM,
COC(=O)C1Sc2[nH]c(=O)sc2C2c3ccccc3OC(=O)C12 (stereo unspecified),"inconclusive: 89.1 µM [inhibitor, single point]",
COc1cccc(N2C(=O)CN(Cc3ccc(OC)c(OC)c3)C2=S)c1,"inconclusive: 1.12 µM [inhibitor, full curve]",
CN(C(=O)COC(=O)/C=C/c1ccc(C(F)(F)F)cc1)C1CCS(=O)(=O)C1 (stereo unspecified),,inactive: -9.29% [at 12.7 µM]
O=C1N=c2ccccc2=C1c1sc(=S)n(NC(=O)c2cccc(O)c2)c1O,active: 31.6 µM,
COc1ccc(N2CCN(C(=O)CSc3nc4nc(C)cc(C)n4n3)CC2)cc1,"inconclusive: 5.62 µM [inhibitor, single point]",
CCc1cc2c3c([nH]c2cc1S(=O)(=O)NCCCOC)CC(C)(C)CC3=O,,inactive: 5.36% [at 102 µM]
Cc1ccc(N(C(C)C(=O)Nc2ccc(S(=O)(=O)N3CCOCC3)cc2)S(C)(=O)=O)cc1 (stereo unspecified),"inconclusive: 89.1 µM [inhibitor, single point]",
CS(=O)(=O)ON=C1CCN(S(=O)(=O)c2ccccc2)CC1,"inconclusive: 44.7 µM [inhibitor, partial curve, poor fit]",
COc1ccc(C(=O)CSc2n[nH]c(-c3ccco3)n2)cc1,"inconclusive: 79.4 µM [inhibitor, partial curve, poor fit]",
O=C(NCCN1CCOCC1)c1cc2sccc2n1Cc1ccc(Cl)cc1,"inconclusive: 25.1 µM [inhibitor, single point]",
CC(=O)Oc1cccc(N2C(=O)CC(Nc3ccc(N4CCOCC4)cc3)C2=O)c1 (stereo unspecified),,inactive: -45.5% [at 12.7 µM]
C#CCOCCOCCOCCNc1nc(N2CCN(C(=O)C(Cc3ccc(O)cc3)n3cc(C(N)C(C)CC)nn3)CC2)nc(N2CCN(C(=O)C(Cc3ccc(O)cc3)n3cc(C(N)C(C)CC)nn3)CC2)n1 (stereo unspecified),,inconclusive: -82.2% [inhibitor]

Structure (SMILES),Potency,"activity, negative = inhibition"
Cc1cc(C)n(C(C)CC(=O)Nc2ccc(C)c(F)c2)n1 (stereo unspecified),,inactive: 8.98%
O=C(CN1CCN(c2cccc(Cl)c2)CC1)NC1CCCc2ccccc21 (stereo unspecified),,inactive: -5.63% [at 102 µM]
Cc1ccc2cc(-c3noc(C(C)(C)C)n3)c(=O)[nH]c2c1,,inactive: -2.52%
CCOCc1cnc(C)nc1NCC(=O)c1c(C)[nH]c2ccc(OC)cc12,"inconclusive: 2 µM [inhibitor, full curve, poor fit]",
COc1ccc(-n2cc(-c3ccc4c(c3)OCO4)n(CC(=O)Nc3cccc(C)c3)c2=O)cc1,"inconclusive: 3.55 µM [inhibitor, full curve]",
COc1ccc2sc(N(CCN(C)C)C(=O)c3cc(Cl)sc3Cl)nc2c1,"inconclusive: 39.8 µM [inhibitor, full curve, poor fit]",
CCCn1c2ccccc2c2nnc(SC(CC)C(=O)Nc3cc(C)on3)nc21 (stereo unspecified),,inactive: -20.9%
C#CCOCCOCCOCCNc1nc(N2CCOCC2)nc(N2CCN(C(=O)[C@H]([C@@H](C)CC)n3cc([C@@H](N)CO)nn3)CC2)n1,,inconclusive: -83.5% [inhibitor]
NS(=O)(=O)c1ccc(NC(=S)N2CCN(c3ccccc3)CC2)cc1,"inconclusive: 89.1 µM [inhibitor, single point]",
O=C(c1cc2cc(Br)ccc2o1)N1CCCCC1,"inconclusive: 31.6 µM [inhibitor, partial curve]",
CC(=O)Nc1ccc(S(=O)(=O)NCCC(=O)OCC(=O)c2cc(C)ccc2C)cc1,,inactive: -28.8% [at 102 µM]
O=C(CCc1cn(Cc2ccc(F)cc2)c2ccccc12)N1CCOCC1,"inconclusive: 17.8 µM [inhibitor, partial curve, poor fit]",
CCS(=O)(=O)c1ncc(Cl)c(C(=O)N(Cc2ccccc2)c2ccc(OC)cc2)n1,"inconclusive: 10 µM [inhibitor, partial curve, poor fit]",
COc1ccc(-c2cn[nH]c2N)cc1OC,"inconclusive: 1.41 µM [inhibitor, full curve, poor fit]",
O=C1CCCN2N=C(SCC(=O)Nc3nc4ccccc4s3)SC2=N1,"inconclusive: 28.2 µM [inhibitor, partial curve, poor fit]",
Cc1c(O)nc(SC2CC(=O)N(c3ccccc3)C2=O)[nH]c1=O (stereo unspecified),"inconclusive: 39.8 µM [inhibitor, single point]",
CCCNC(=O)c1c(N)n(-c2ccc(S(N)(=O)=O)cc2)c2nc3ccccc3nc12,active: 50.1 µM,
Cn1c(NC(=O)/C=C/c2ccco2)cc(=O)n(C)c1=O,"inconclusive: 25.1 µM [inhibitor, single point]",
Cc1c(N2C(=O)C(=O)/C(=C(/O)c3ccccc3)C2c2ccc(F)cc2)c(=O)n(-c2ccccc2)n1C (stereo unspecified),"inconclusive: 89.1 µM [inhibitor, single point]",
COc1ccc(/C=C/C(=O)OCCNC(=O)c2ccncc2)cc1OC,"inconclusive: 50.1 µM [inhibitor, partial curve, poor fit]",
CSC(C(=O)c1cc2ccccc2o1)c1ccccc1 (stereo unspecified),,inactive: 13.4% [at 2.33 µM]
CC(C)C(NC(=O)CCNC(=O)c1ccc([N+](=O)[O-])cc1)c1nc2ccccc2[nH]1 (stereo unspecified),"inconclusive: 11.2 µM [inhibitor, partial curve, poor fit]",
